{"source": "PubChem BioAssay AID686979", "about": "(National Center for Advancing Translational Sciences (NCATS), 2013)", "note": "The whole screen tested about 420,000 compounds, of which about 50,000 (12%) were called active. Inconclusive means that the source gave no clear call. Such entries were picked first, then a sample of the others. Calls follow the shape of the dose curve; as a rule, active = well fitted inhibition curve with a large enough effect; inconclusive = small, poorly fitted or top-dose-only effect; inactive = flat fitted curve, though single readings scatter. No potency is given beside an inconclusive call; the fits are too rough. % is scaled to controls: 0 for no effect and ±100 for the full control effect; potency is read from the fitted curve at half-maximal effect; tags tell the direction and shape of the fitted curve."}
{"test": "qHTS for Inhibitors of human tyrosyl-DNA phosphodiesterase 1 (TDP1): qHTS in cells in presence of CPT; also: nearly all actives have a fitted effect of over 55% in size", "conditions": "chicken DT40 Tdp1-/-;hTDP1 cells + 20 nM CPT, ATP luminescence, 48 h; activity change, negative = growth inhibition: at 46.2 µM (top of the series) unless noted", "method_in_brief": "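Chicken DT40 Tdp1-/- cells complemented with human TDP1, 400 cells/well, exposed to compounds plus 20 nM camptothecin for at least 48 h at 37 C; viability read as ATP content by CellTiter-Glo luminescence.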"}
{"smiles": "N#Cc1cc(C(=O)c2cc(F)ccc2O)cn(Cc2ccccc2)c1=O", "activity change, negative = growth inhibition": "inactive: -1.38%"}
{"smiles": "O=C(NC1CCCCC1)C(c1ccccc1)N(Cc1ccco1)C(=O)Cn1cnc2ccccc21", "note": "(stereo unspecified)", "Potency": "active: 23.1 µM"}
{"smiles": "O=C(NCc1ccc(F)cc1)C1CCN(S(=O)(=O)c2cccc3nonc23)CC1", "activity change, negative = growth inhibition": "inactive: -14.5%"}
{"smiles": "CCN(CC)S(=O)(=O)c1ccc(C)c(NC(=O)CNc2cccc(S(=O)(=O)N3CCCC3)c2)c1", "Potency": "active: 18.4 µM"}
{"smiles": "CC(NC(=O)/C=C/c1ccccc1)c1ccccc1", "note": "(stereo unspecified)", "Potency": "inconclusive [inhibitor, single point]"}
{"smiles": "CCc1cccc(C)c1NC(=O)CN1C(=O)C2(SCC(=O)N2c2cccc(F)c2)c2ccccc21", "note": "(stereo unspecified)", "activity change, negative = growth inhibition": "inactive: -29.2%"}
{"smiles": "COc1ccc(CNC(=O)CN2C(=O)NC(c3ccccc3)(c3ccccc3)C2=O)cc1OC", "Potency": "inconclusive [inhibitor, single point]"}
{"smiles": "CCC(C)c1ccc(NC(=S)NCCn2cc(Cl)cn2)cc1", "note": "(stereo unspecified)", "Potency": "inconclusive [inhibitor, single point]"}
{"smiles": "C[C@@H](C(=O)Nc1ccc2ccccc2c1)[C@@H]1C[C@@]1(C)[C@@H](NC(=O)c1cnccn1)c1ccccc1", "Potency": "active: 25.9 µM"}
{"smiles": "N#Cc1ccc(-c2nc3ccc(Br)cn3c2Cc2ccsc2)cc1", "activity change, negative = growth inhibition": "inactive: -100%"}
{"smiles": "C[C@]1(C(=O)NCCCNc2ncc(C(F)(F)F)cc2Cl)C=C[C@@H](Cc2ccccc2)N1C(=O)c1ccccc1", "Potency": "inconclusive [inhibitor, single point]"}
{"smiles": "Cc1cc(C)c(S(=O)(=O)c2ccc(F)cc2C)c(Cl)n1", "Potency": "inconclusive [inhibitor, single point]"}
{"smiles": "COc1ccccc1C(=O)NN(C)C1=NS(=O)(=O)c2ccccc21", "activity change, negative = growth inhibition": "inactive: -5.56%"}
{"smiles": "Cc1ccc(C(=O)Nc2ccc(NC(=O)c3ccccc3Cl)c(C)c2)cc1", "Potency": "inconclusive [inhibitor, single point]"}
{"smiles": "O=C(Nc1cccc(Cl)c1N1CCOCC1)c1ccco1", "Potency": "inconclusive [inhibitor, single point]"}
{"smiles": "Cc1cccc(N(CC(=O)NC2CCCCC2)C(=O)c2c(C)noc2C)c1", "activity change, negative = growth inhibition": "inactive: 2.07%"}
{"smiles": "CC(C)CN(C)c1ccc(/C=C2\\C=Cc3ccccc32)cc1", "Potency": "active: 2.82 µM"}
{"smiles": "COc1cc(NC(=O)c2cccs2)c(C(=O)OCC(=O)NC(C)c2ccccc2)cc1OC", "note": "(stereo unspecified)", "activity change, negative = growth inhibition": "inconclusive: -35.3% [inhibitor]"}
{"smiles": "CC(C)CC1=NN2C(=N)/C(=C\\c3coc4ccccc4c3=O)C(=O)N=C2S1", "activity change, negative = growth inhibition": "inconclusive: -35.9% [inhibitor]"}
{"smiles": "COc1cc(C2N(c3ccccc3)CCN2c2ccccc2)ccc1OC(C)=O", "activity change, negative = growth inhibition": "inactive: -29.7%"}
{"smiles": "CC1Cc2ccccc2N1C(=O)COC(=O)c1ccc(Cl)nc1", "note": "(stereo unspecified)", "activity change, negative = growth inhibition": "inactive: 12.8%"}
